Source: PubChem BioAssay AID488969 (Vanderbilt High Throughput Screening Facility, 2010)
Whole data set: some 110,000 compounds, median “z-score” near -0.1, cut for the highest 2% near 2. The list shows a part of the results.

These compounds were tested against Metabotropic glutamate receptor 8 (Rattus norvegicus) (UniProt P70579) (assay: mGluR8 Gi/Go-coupled signaling modulation – cell-based, rat, thallium flux, HTS, primary screen (AID 488969)). Settings: HEK293 rat mGluR8, GIRK (G protein-gated inwardly rectifying potassium channel) thallium flux, FluoZin2; at 10 µM; stronger effect = higher value; submaximal glutamate (EC20) added with thallium.
Sequence of UniProt P70579 (P70579 whole entry, looked up): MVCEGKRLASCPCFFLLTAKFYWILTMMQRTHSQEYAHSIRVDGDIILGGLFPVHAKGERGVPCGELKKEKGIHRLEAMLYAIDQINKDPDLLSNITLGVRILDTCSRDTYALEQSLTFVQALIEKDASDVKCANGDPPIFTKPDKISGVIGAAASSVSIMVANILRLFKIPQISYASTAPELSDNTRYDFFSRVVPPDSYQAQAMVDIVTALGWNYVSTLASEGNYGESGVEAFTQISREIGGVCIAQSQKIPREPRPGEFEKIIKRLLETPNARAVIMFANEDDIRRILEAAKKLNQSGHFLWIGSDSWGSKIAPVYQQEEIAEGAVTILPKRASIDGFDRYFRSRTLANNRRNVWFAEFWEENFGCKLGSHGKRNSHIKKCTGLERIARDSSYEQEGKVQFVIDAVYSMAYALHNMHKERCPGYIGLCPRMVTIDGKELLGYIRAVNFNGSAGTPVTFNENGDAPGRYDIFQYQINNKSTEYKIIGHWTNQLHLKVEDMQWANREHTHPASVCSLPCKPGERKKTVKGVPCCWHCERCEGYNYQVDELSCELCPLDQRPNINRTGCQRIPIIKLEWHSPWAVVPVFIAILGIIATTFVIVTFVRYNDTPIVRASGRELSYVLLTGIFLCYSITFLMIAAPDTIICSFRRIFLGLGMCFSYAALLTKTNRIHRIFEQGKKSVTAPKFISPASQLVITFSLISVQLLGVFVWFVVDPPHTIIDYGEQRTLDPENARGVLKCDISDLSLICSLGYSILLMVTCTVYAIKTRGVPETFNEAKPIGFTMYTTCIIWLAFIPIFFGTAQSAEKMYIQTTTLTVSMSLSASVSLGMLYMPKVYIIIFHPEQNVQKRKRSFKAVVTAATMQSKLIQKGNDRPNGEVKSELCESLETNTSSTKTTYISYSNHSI
For `COc1ccc2cc3cc(C(=O)NCc4cccs4)oc3nc2c1`, the z-score was -0.312.
`CCCS(=O)(=O)N1CCCC(C(=O)NCCN2CCCCC2C)C1` (stereo not given) was tested, and the z-score was -0.0419.
`Cc1cccc(OCC(=O)Nc2cccc(O)c2)c1` was tested, and the z-score was 0.13.
Work on `Cc1ccc(C(=O)CN(C(=O)c2ccc(Cl)cc2)N2C(=O)c3ccccc3C2=O)cc1` yielded a z-score of -0.256.
`CCc1nnc(NC(=O)c2ccc(S(=O)(=O)N3CCc4ccccc4C3)cc2)s1` was tested, and the z-score was -0.158.
`Cc1nc2ccc(NC(=O)c3cc([N+](=O)[O-])cc([N+](=O)[O-])c3Cl)cc2s1` showed a z-score of -0.928.
With `O=C(O)C1CC(=O)N(c2ccc(F)cc2)C1` (stereo not given) the z-score was -0.0935.
`COCCn1c(SCC(=O)N2CCCc3ccccc32)nnc1-c1ccoc1C` was tested, and the z-score was 0.0369.
`Cc1ccc(-c2nc(N)n(S(C)(=O)=O)n2)cc1` gave a z-score of 0.138.
In the case of `Cc1ccsc1/C=C(\C#N)C(=O)Nc1c(C)n(C)n(-c2ccccc2)c1=O`, the z-score is reported as -0.0704.
`CCOC(=O)c1cnc2c(-c3cccc(Br)c3)cnn2c1C` gave a z-score of -0.475.
`O=S(=O)(c1cccc(S(=O)(=O)N2CCC(Cc3ccccc3)CC2)c1)N1CCOCC1` was tested, and the z-score was 1.8.
Compound `Cc1cccc(NC(=O)c2c(C)nc3ccccn23)c1` has a z-score of 0.272.
`COc1ccc(C(=O)/C=C/Nc2ccc(S(=O)(=O)Nc3ncccn3)cc2)cc1` showed a z-score of 0.0026.
Compound `CCOc1cc(C(=O)CCC(=O)OCC(=O)N2c3ccccc3NC(=O)C2(C)C)ccc1O` has a z-score of -0.428.
Work on `CC1=CC(C)(C)n2c(O)c(N=NC(N)=S)c3c(C)ccc1c32` yielded a z-score of 1.1.
Work on `NS(=O)(=O)c1ccc(NC(=O)c2cc(-c3cccs3)nc3ccccc23)cc1` yielded a z-score of -0.204.
`CCOC(=O)c1nn(-c2ccccc2C)c2nc(-c3ccc(Cl)cc3)c(C#N)c(=O)n12` was tested, and the z-score was -0.206.
In the case of `C=CCOC(=O)C1=C(C)Nc2ncnn2C1c1cc(Br)ccc1F` (stereo not given), the z-score is reported as -0.0321.
`COC(=O)CC1SCCNC1=O` (stereo not given) showed a z-score of 0.961.
For `Cc1ccc(OC(=O)c2ccc(Br)o2)cc1`, the z-score was -0.171.
`Cc1ccc(S(=O)(=O)c2c(C)nn(-c3ccccc3)c2OC(=O)c2ccco2)cc1` gave a z-score of -0.0111.
`O=C(O)c1cccc(NS(=O)(=O)c2cccc3nsnc23)c1` was tested, and the z-score was -0.226.
`O=C(CSc1ccccc1)Nc1ccc(S(=O)(=O)NCC2CCCO2)cc1` (stereo not given) was tested, and the z-score was -0.21.
`Cc1cccc(C)c1NC(=O)NC1(C(=O)NCCCN2CCOCC2)CCCCC1` showed a z-score of -0.375.
`COCCCNC(=O)c1cc2c(=O)n3cc(C)ccc3nc2nc1NCC1CCCO1` (stereo not given) showed a z-score of -0.177.
`Cc1ccc(NC(=O)C(CC(C)C)NC(=O)C2CCC(C)CC2)nc1` (stereo not given) gave a z-score of -0.935.
`Cc1csc(NC(=O)CCC(=O)N(CC(=O)NC2CCCC2)Cc2ccco2)n1` gave a z-score of 1.55.
With `O=C(/C=C/Nc1ccccc1)c1cnc(-c2ccccc2)s1` the z-score was 0.0836.
`Cc1occc1C(=O)Nc1cccc(/C=C/C(=O)O)c1` gave a z-score of -0.0738.
`O=C(CSc1ccc(-c2ccco2)nn1)c1ccc(F)cc1` showed a z-score of -0.0218.
With `CC(=O)NCC(=O)OCC(=O)c1ccc2ccccc2c1` the z-score was -0.577.
For `CC(C)OC(=O)c1cc(NC(=O)C2C3CCC(O3)C2C(=O)O)cc(C(=O)OC(C)C)c1` (stereo not given), the z-score was -0.293.
`Cc1ccc(S(=O)(=O)N(C)c2ccc(C(=O)N3CCC(C(N)=O)CC3)cc2)cc1` showed a z-score of -0.841.
`COc1ccc(N2CCN(C(=O)C(C)(C)Oc3ccc(Cl)cc3)CC2)cc1` was tested, and the z-score was 0.258.
`O=S(=O)(NC1CCCCC1)c1ccc(-c2csnn2)s1` gave a z-score of -0.711.
For `Cc1cc(C(=O)NCc2ccco2)on1`, the z-score was -0.514.
With `CC(=O)c1cc(C#N)c(SCc2ccc(F)cc2)nc1C` the z-score was -0.343.
In the case of `CCOc1ccc(NC(=O)[C@@H](NC(=O)c2ccccc2)[C@@H](C)CC)cc1`, the z-score is reported as 0.512.
`COc1cccc(-c2cc(C(=O)Nc3c(C)n(C)n(-c4ccccc4)c3=O)no2)c1` gave a z-score of -0.312.
`O=C(CSc1ccc2nnc(-c3ccc(F)cc3)n2n1)N1CCCc2ccccc21` was tested, and the z-score was -0.861.
`CSc1ccccc1C(=O)Nc1cccc(N(C)S(C)(=O)=O)c1` was tested, and the z-score was 0.081.
`CC(NC(=O)COC(=O)CCNC(=O)c1ccco1)C12CC3CC(CC(C3)C1)C2` (stereo not given) showed a z-score of -0.0782.
Compound `CCc1[nH]c(=O)c(C#N)c2c1CCCC2` has a z-score of -0.0557.
`CCOC(=O)c1c(C)nc2sc3c(c2c1-c1ccc(OC)cc1)NC(c1ccc(OC)cc1)NC3=O` (stereo not given) showed a z-score of -0.241.
Compound `CC(C)Cc1ccc(/C=C/C(=O)NC2CC2)cc1` has a z-score of -0.16.
With `COc1nc(-c2ccc(Cl)cc2)ccc1-c1noc(-c2ccco2)n1` the z-score was -0.281.
Compound `COc1ccc(OCCNC(=O)c2ccccc2OCC(=O)N2CCCCC2)cc1` has a z-score of -0.424.
In the case of `O=C(O)C1C2C=CC(C2)C1C(=O)NCc1ccc(Cl)c(Cl)c1` (stereo not given), the z-score is reported as -0.175.
`O=c1[nH]c2ccc(S(=O)(=O)N3CCN(Cc4ccccc4)CC3)cc2[nH]c1=O` showed a z-score of 0.0265.
`CCOc1ccc(N2CC(C(=O)OC)CC2=O)cc1` (stereo not given) showed a z-score of -0.028.
In the case of `NC(=O)C1CCN(C(=O)C2c3ccccc3C(=O)N3CCc4ccccc4C23)CC1` (stereo not given), the z-score is reported as -0.556.
In the case of `CC1CC1C(=O)OCC(=O)NCc1ccccc1Cl` (stereo not given), the z-score is reported as 0.266.
For `O=C1c2ccccc2C(=O)N1c1nc(-c2cccs2)cs1`, the z-score was -0.507.
Compound `NC(=O)CCNC(=O)c1ccc(Cl)cc1` has a z-score of -0.504.
